From ChEMBL document CHEMBL1201862, “PubChem BioAssay data set” (2004)

These molecules were tested on NCI-H322M (assay: NCI tumour cell line growth inhibition, 48 h).

Structure (SMILES) | GI50
CC1=C(CO)C(=O)O[C@@H]([C@@H](CO)[C@H]2CCC3C4C[C@@H](O)[C@@]5(O)CC=CC(=O)[C@]5(C)C4CC[C@@]32C)C1 (some centres not stated) | inactive: > 100 µM
COc1ccc(Nc2nc3c(N)cc(C(F)(F)F)cc3nc2-c2ccccc2)cc1 | inactive: > 100 µM
O=[N+]([O-])c1ccc(N2N=C(c3ccc(NCc4nc5ccccc5[nH]4)cc3)CC2c2ccco2)cc1 (configuration not stated) | inactive: 30.3 µM
O=C1CCCC2=C1CC1=C(CCCC1=O)N2c1cccc([N+](=O)[O-])c1 | inactive: > 100 µM
COC(=O)CCC(NC(=S)N/N=C/c1ccco1)C(=O)OC (configuration not stated) | inactive: > 100 µM
CN(C)CCCN1c2ccccc2CCc2ccc([N+](=O)[O-])cc21 | inactive: 20.2 µM
COCCN1C2=CCCCC2=Nc2c1nc(N)[nH]c2=O | inactive: > 100 µM
CCCCCC1C2C(=O)NC(=O)C1C(=O)NC2=O (configuration not stated) | inactive: > 100 µM
Cn1c(C(C)(C)OC(=O)Oc2ccccc2)cnc1[N+](=O)[O-] | inactive: 68.4 µM
Cc1nc2cc3ccccc3cc2[nH]c1=O | inactive: > 100 µM
COC(=O)[C@H]1ON2O[C@H](OC3CCCC[C@@H]3c3ccccc3)C[C@@H]3CC[C@H]1[C@@]32C (some centres not stated) | inactive: > 100 µM
CC(C)(CN1CCOCC1)C(=O)/C=C/c1ccc(/C=C/C(=O)C(C)(C)CN2CCOCC2)cc1 | inactive: 1.44 µM
NC(CC(O)(c1ccccc1)c1ccccc1)c1ccccc1S (configuration not stated) | inactive: 19.2 µM
C[C@@]12C[C@@H](c3ccccc3O1)N1CCCSC1=N2 | inactive: > 100 µM
O=C1/C(=C\c2cccc(Oc3ccccc3)c2)S(=O)(=O)C(c2ccccc2)N1c1cc(Cl)ccc1Cl (configuration not stated) | inactive: 30.1 µM
O=C1CCc2c(sc3ncnc(Nc4cccc(Br)c4)c23)C1 | inactive: 3.94 µM
Nc1ccccc1N/C(=C\C(=O)C(Cl)(Cl)Cl)c1ccccc1 | inactive: 31.5 µM
Cn1nc2ccc3nccc(NCCNCCO)c3c2n1 | inactive: 28.1 µM
O=C1CCCCCCCCCCC(=O)N2CCOCCOCCN1Cc1cccc(n1)C2 | inactive: > 100 µM
CCCC1C(CC)C(NC)C(C#N)(C#N)C1(C#N)C#N (configuration not stated) | inactive: 18.8 µM
COC(C)C(O)(C(=O)OCC1=CCN2CCC(O)C12)C(C)(C)O (configuration not stated) | inactive: > 100 µM
COc1ccc2c(c1)[n+]([O-])c(/C(C)=N/NC(=O)CC#N)c[n+]2[O-] | inactive: > 100 µM
CCc1ccccc1NC(=O)C1=C(C)NC(C)=C(C(=O)Nc2ccccc2CC)C1c1cccc([N+](=O)[O-])c1 | inactive: 28 µM

Structure (SMILES) | GI50
CCc1cccc(C)c1NS(=O)(=O)c1ccccc1 | inactive: > 100 µM
COc1ccc(N2C(=O)C3c4[nH]c5c(C)cccc5c4C4CCC(C(C)C)CC4C3C2=O)cc1 (configuration not stated) | inactive: 12.9 µM
COc1cc2c(cc1OC)[C@@](C)(C(O)C(O)C(C)(C)O)NCC2 (some centres not stated) | inactive: > 100 µM
COc1cc(C2SCC(=O)N2c2ccc(NC(C)=O)cc2)cc(OC)c1OC (configuration not stated) | inactive: > 100 µM
O=[N+]([O-])c1ccccc1OCCOc1ccccc1[N+](=O)[O-] | inactive: > 100 µM
CS/C(=C(\S)c1ccccc1)c1ccccc1 | inactive: > 100 µM
CC(C)N(C(=O)C12C3(C(=O)C(C)(C)C)C4C5(C#N)C3C1(C(=O)C(C)(C)C)C5C42C(=O)C(C)(C)C)C(C)C (configuration not stated) | inactive: > 100 µM
OC1c2[nH]c3ccccc3c2CCN2CCCCC12 (configuration not stated) | inactive: > 100 µM
C=CCOc1cccc(C2(O)c3ccccc3C3=NCCCN32)c1 (configuration not stated) | inactive: 12.7 µM
COc1ccc(/C=C2\CCC(C)c3c2nc(N)c(C#N)c3-c2ccc(OC)c(OC)c2)cc1OC (configuration not stated) | inactive: 31 µM
CCOC(=O)C1Oc2ccc([N+](=O)[O-])c3c2C1(O)CCC3 (configuration not stated) | inactive: > 100 µM
Cc1cn(CCOCCOC(=O)NC(CCCNC(N)=O)C(=O)O)c(=O)[nH]c1=O (configuration not stated) | inactive: > 100 µM
C=C1[C@@H](OC(C)=O)/C=C/C2C3C(=O)[C@@](C)(OC(C)=O)[C@H]([C@H](OC(C)=O)[C@]4(O)[C@@H](C)C(=O)O[C@H]4[C@H]1Cl)[C@@]23C (some centres not stated) | inactive: > 100 µM
O=C(Nc1ccc(Cl)cc1C(F)(F)F)C(=O)Nn1c(S)nc2ccccc2c1=O | inactive: > 100 µM
CC1(C)Oc2ccc(Cl)cc2C12CC2 | inactive: 22.2 µM
O=C1CSC(/C=C/c2ccccc2)N1c1ccc(-n2c(-c3ccccc3)nc3ccccc3c2=O)cc1 (configuration not stated) | inactive: 9.29 µM
O=c1cc(-c2ccccc2)oc2cc(O)cc(O)c12 [CHRYSIN] | inactive: 25.8 µM
CC1CCCc2c(CC3CC(=O)NC(=O)C3)n[nH]c21 (configuration not stated) | inactive: > 100 µM
CC(C)C[C@@H](NC(=O)[C@@H](Cc1cccc2ccccc12)NC(=O)N1CCOCC1)B(O)O | inactive: > 100 µM
C=C(C)COc1ccc2c(c1)CCC1C2CCC2(C)C(=O)/C(=N/O)CC12 (configuration not stated) | inactive: 7.93 µM
O=C1OC(=O)C2C3C=CC(C12)C1C2C=CC2C31 (configuration not stated) | inactive: > 100 µM
C/C(=C/CNc1ncnc2c1ncn2CCC#N)CO | inactive: 7.76 µM
N/C(=N\c1ccc(Cl)cc1)c1ccccc1N | inactive: > 100 µM

Structure (SMILES) | GI50
COc1ccc(/C=C\c2cc(OC)c(OC)c(OC)c2)c(O)c1O [COMBRETASTATIN A-1] | active: 0.0697 µM
O=C1c2c(ccc3c2CCCC3)CC12Cc1ccccc1C2 | inactive: 31 µM
CCOC(=O)C1C(=O)c2ccccc2CN1Cc1ccccc1 (configuration not stated) | inactive: > 100 µM
COc1cc2c(cc1OC)CC(=O)c1cc(OC)c(OC)cc1/C=C\2 | inactive: > 12.5 µM
Cn1ccnc1CCc1ccc(Cl)c(Cl)c1 | inactive: > 100 µM
CC(=O)O[C@H]1C#C/C=C\C#CC[C@@H]2C(=O)N(C(=O)OC(C)(C)C)[C@@H]12 | inactive: > 78 µM
Cc1cc2[nH]c3c(C#N)c(-c4ccccc4)c(/C=N/c4ccc(F)cc4)c(=O)n3c2cc1C | inactive: > 100 µM
Nn1c(CCCCCCCCc2nnc(COc3ccccc3)n2N)nnc1COc1ccccc1 | inactive: > 100 µM
CO[C@H]1ON=C(c2c(C)cc(C)cc2C)[C@@H]1C1(c2ccccc2)ON=C(c2c(C)cc(C)cc2C)O1 (some centres not stated) | inactive: > 100 µM
CC1(C)CCCCCCCCCC(C)(CCCCCCCCCCCCO)C1=O (configuration not stated) | inactive: 18 µM
COc1cc(Br)cc2cc(C3=CSC4=NCCN34)c(=O)oc12 | inactive: 18.3 µM
CCOP(=O)(OCC)Oc1c(OC)c2[nH]c(C(=O)OC)cc2c2c(C(=O)O)c[nH]c12 | inactive: > 100 µM
COc1ccc2nc(N/N=C/C(C)=N/Nc3cc(C)c4cc(OC)ccc4n3)cc(C)c2c1 | inactive: 24.3 µM
COC(=O)c1cc(=O)nc2cc3cccccc3n12 | inactive: > 100 µM
C=CC(C)(C)c1cc([C@@H]2COc3cc(O)ccc3C2=O)c(O)c(OC)c1OC | inactive: 21.8 µM
CCCCCN1C(=O)C(Cc2ccccc2)N=C(c2ccc(O)cc2)c2cc(Cl)ccc21 (configuration not stated) | inactive: 14.3 µM
COc1cn2c(cc1=O)COc1ccc(-c3ccccc3)cc1-2 | inactive: 56.9 µM
CCOC(=O)c1cn(-c2ccc(Cl)cc2)c(=O)n2c1nc1ccccc12 | inactive: > 100 µM
O=C(c1ccc(Cl)cc1)N(C(=S)OC12CC3CC(CC(C3)C1)C2)c1ccccc1 | inactive: 43.1 µM
CN1CC2=C(N=C(S)NC2c2ccc(Cl)cc2)/C(=C/c2ccc(Cl)cc2)C1 (configuration not stated) | inactive: 17.2 µM
Cc1ccc(O)c(/N=N\c2c(O)cc(S(=O)(=O)O)c3ccccc23)c1 | inactive: 53.5 µM
CC1=CC2CC(C)=C(CC[C@]3(C)CC[C@H]([C@@H](C)C(=O)O)OO3)C(C)(C)C2CC1 (some centres not stated) | inactive: 1.55 µM
CC(=O)NCCCCCCNC(C)=O [HEXAMETHYLENEBISACETAMIDE] | inactive: 6980 µM

Structure (SMILES) | GI50
O=C(O)c1ccc(C=C2Sc3ccccc3S2)cc1 | inactive: > 100 µM
CSc1nc(SC)c2c(C(N)=S)n[nH]c2n1 | inactive: 40.2 µM
Cn1ncc2cc3c(Nc4ccc(Cl)cc4)cccc3nc21 | inactive: 20.3 µM
COC(=O)[C@]1(c2cc3ccccc3n2S(=O)(=O)c2ccccc2)CC2CN(C(C)=O)C1CC2=O (some centres not stated) | inactive: 3.79 µM
CCOC(=O)c1cc(-c2cc(OC)c(OC)c([N+](=O)[O-])c2)c([N+](=O)[O-])n1C | inactive: > 10 µM
[O-][N+]1=NC(c2ccccc2)=C1c1ccccc1 | inactive: > 50 µM
NC1CC(n2ccc(=O)[nH]c2=O)OC1C(O)CO (configuration not stated) | inactive: > 100 µM
O=C(CSCC(=O)N/N=C/c1cccc(OCc2ccccc2)c1)N/N=C/c1cccc(OCc2ccccc2)c1 | inactive: > 74.8 µM
CCCCCCCCCCCCCCCCCCOP(=O)([O-])OCC[N+](C)(C)C [OCTADECYLPHOSPHONOCHOLINE] | active: 0.989 µM
CC1=NN(C(=O)CC(=O)NC(=O)CC(=O)Nc2ccccc2F)C(=O)C1/N=N/c1ccc([N+](=O)[O-])cc1 (configuration not stated) | inactive: 51.1 µM
CCN(CC)CCOC(=O)/C(=C/c1ccc(OC)cc1)c1cc(OC)c(OC)c(OC)c1 | inactive: 9.06 µM
Cc1ccc(NC(=O)CCC(=O)C2CC(=O)CC/C2=N\NC(=O)c2cc3ccccc3cc2O)cc1C (configuration not stated) | inactive: 31.4 µM
COc1nc2nccnc2c(=O)n1C | inactive: > 10 µM
COC(=O)/C=C\C(C#N)(C#N)/N=C/c1ccsc1 | inactive: 17.3 µM
Cc1cc(C)c(C)c(-n2[nH]c(=O)n(C)c2=O)c1C | inactive: > 100 µM
CCN(CC)CCNc1ccc2ncn3c4c(OC)ccc(OC)c4c(=O)c1c23 | inactive: 10.6 µM
Nc1ccc2c(c1)NCCN2 | inactive: 89.9 µM
O=S(O)c1cc(Cl)c(O)c(Cl)c1 | inactive: > 100 µM
CCC(C)C1(O)OC2CC3(C)OC(=CC3=O)/C(C)=C\C3OC(=O)C1(C)C32 (configuration not stated) | inactive: 22.4 µM
COc1cc(C2C(Cl)C(=O)N2c2ccc(Br)cc2)cc(I)c1O (configuration not stated) | inactive: 69.5 µM
O=c1c2ccccc2n2nnc3ccc(NCCCNCCNCCCNc4ccc5nnn6c7ccccc7c(=O)c4c56)c1c32 | inactive: 2.42 µM
NC(CCCC(N)P(=O)(O)O)C(=O)O (configuration not stated) | inactive: > 100 µM
CC1CC/C(=C\c2ccc(F)cc2)C2=C1C(c1ccc(F)cc1)n1c(s/c(=C/c3cccc(Br)c3)c1=O)=N2 (configuration not stated) | inactive: > 100 µM

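Tested at 5 concentrations; 48 h exposure; 96-well plates; endpoints linearly interpolated, else capped at highest concentration. GI50 is the concentration that inhibits growth by half.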 Activity calls are given as the source filed them. Cut-off read from the data, not from the text of the source: active = GI50 up to about 1.1 µM and inactive = higher.
